# Source: the supplement of paper PMC3334620
# Over roughly 33,000 sequences, “E-score (-0.5 to 0.5)” has its median near -0.035; the highest 2% begin near 0.35. The list shows a part of the results.
# Target: T1, Pdr3 (UniProt P33200)
# T1 sequence: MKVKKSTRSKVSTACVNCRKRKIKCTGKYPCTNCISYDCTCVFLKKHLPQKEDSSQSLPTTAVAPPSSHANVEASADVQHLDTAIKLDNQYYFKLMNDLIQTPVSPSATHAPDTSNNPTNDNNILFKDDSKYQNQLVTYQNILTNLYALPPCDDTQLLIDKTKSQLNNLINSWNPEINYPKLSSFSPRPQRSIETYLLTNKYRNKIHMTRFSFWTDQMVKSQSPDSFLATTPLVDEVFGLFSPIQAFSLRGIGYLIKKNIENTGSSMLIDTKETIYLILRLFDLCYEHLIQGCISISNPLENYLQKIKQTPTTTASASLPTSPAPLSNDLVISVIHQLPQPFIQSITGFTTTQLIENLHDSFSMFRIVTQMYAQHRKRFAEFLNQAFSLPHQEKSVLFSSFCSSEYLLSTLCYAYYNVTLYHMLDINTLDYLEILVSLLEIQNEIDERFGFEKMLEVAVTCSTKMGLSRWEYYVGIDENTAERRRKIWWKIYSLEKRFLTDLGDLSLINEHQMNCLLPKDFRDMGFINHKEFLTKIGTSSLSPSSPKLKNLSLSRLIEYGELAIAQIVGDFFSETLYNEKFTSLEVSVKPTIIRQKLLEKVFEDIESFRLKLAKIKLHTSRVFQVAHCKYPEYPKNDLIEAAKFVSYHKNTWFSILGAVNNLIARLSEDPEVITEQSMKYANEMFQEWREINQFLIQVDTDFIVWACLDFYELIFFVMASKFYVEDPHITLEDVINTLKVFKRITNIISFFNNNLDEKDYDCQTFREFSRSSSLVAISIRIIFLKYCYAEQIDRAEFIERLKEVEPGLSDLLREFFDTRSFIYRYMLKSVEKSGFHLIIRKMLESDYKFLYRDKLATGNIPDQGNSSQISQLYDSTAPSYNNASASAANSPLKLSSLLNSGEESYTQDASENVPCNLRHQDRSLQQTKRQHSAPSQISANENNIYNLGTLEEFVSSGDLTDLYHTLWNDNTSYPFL
# Experiment: PBM E-score (8-mer binding enrichment) (E-score (-0.5 to 0.5)); higher = stronger / more preferred TF binding; most listed sequences are background and not binding sites
# Conditions: protein concentration: 200 nM; construct: GST-full length
# Outline: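 PURExpress in vitro transcription/translation supplied GST-tagged yeast transcription factors, either full-length or DNA-binding domain. Applied at about 100-200 nM to universal all-10-mer Agilent arrays double-stranded by primer extension, the bound protein was detected with fluorescent anti-GST. E-scores, modified Wilcoxon-Mann-Whitney statistics, were given by the Universal PBM Analysis Suite to ungapped eight-base words pooled with their reverse complements after masliner normalisation.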
row,Sequence,PBM E-score
1,GCTCCCTA,-0.242
2,CCTAAACG,-0.0936
3,GCTCGGAA,0.413
4,AGTTTTAA,-0.0741
5,AGGCTACG,-0.383
6,GACTTCGC,0.132
7,CTGTTTGA,-0.125
8,CGCTGTTC,-0.109
9,AATGTAGG,-0.174
10,CCCTAGAC,-0.258
11,AGTCCCTG,-0.273
12,AGCTGTGG,-0.25
13,AAGAGTAT,-0.289
14,AGCACAGC,0.0216
15,AGGCCGAC,0.164
16,TTGGCCAA,-0.0848
17,TAACTCTA,-0.213
18,GCGCTAGA,-0.135
19,CAGAACAC,0.0469
20,TGGCTTAA,0.00239
21,AAGGTTCA,-0.0157
22,TCGCTAGA,-0.125
23,ATGGATCA,-0.0186
24,AAGCCTGG,-0.102
25,CCTGTGGC,-0.164

row,Sequence,PBM E-score
1,CAAATCCC,0.093
2,CTGTCCGA,0.247
3,CACAAGAC,-0.199
4,AACAGGCT,-0.127
5,CATATCCA,-0.167
6,CTGGTACC,-0.0822
7,TTCGCCAA,-0.128
8,ACAGTGAC,0.0756
9,CATCGGCG,0.105
10,CGTCAATA,-0.13
11,ATGCGGAC,0.134
12,GCTTCTCC,-0.0434
13,ATTGCCAG,0.0932
14,AATACCAC,-0.0169
15,ACTGTCCT,0.0354
16,AATTTCGG,0.161
17,AAATTTTG,-0.243
18,AGCACTGC,-0.274
19,AAGTCAGC,0.0449
20,ATTTGGCG,-0.14
21,AGACTCGA,-0.271
22,GGTACCAC,-0.0409
23,GCATAAGA,-0.00861
24,CTCTGGAC,-0.0149
25,CTCGGCTA,0.186

row,Sequence,PBM E-score
1,ATAGTACC,-0.00506
2,TAGCCCAA,-0.0827
3,CAACAAAC,0.0447
4,GTGCACAC,-0.113
5,CTAATCCA,-0.065
6,GAACTATC,0.0619
7,CAGAACCG,0.116
8,CCGCCACC,0.0657
9,ACTCTGCG,-0.0457
10,ATAGCGCG,0.0942
11,ACACTCTG,-0.149
12,AAACTGGA,-0.124
13,CATTACAA,0.00095
14,TCAACCGA,0.148
15,CAGTATGG,-0.0259
16,CGATCGTC,0.145
17,CCACAGTC,-0.3
18,CAGCGTAA,-0.0367
19,AAACATAT,0.106
20,CCCGTCCC,0.195
21,CGAGCATA,-0.0939
22,GTAACTGA,-0.311
23,CAAGGCTC,-0.356
24,AAGTGCCA,-0.0807
25,GTTGTGGA,-0.0502

row,Sequence,PBM E-score
1,CGAAAAAC,0.00325
2,GGATGCAA,0.0676
3,AAACGTCG,0.0829
4,AATTATGT,-0.076
5,GAACTGGC,0.101
6,CCGAATCG,0.259
7,AGACCACA,-0.095
8,AGAAGAGC,-0.112
9,ACTACGCG,0.0457
10,ATAGGGGC,-0.0113
11,ACCGTTCC,0.364
12,CCGTGAGC,0.0934
13,AGAGACGA,-0.103
14,GCAGTGGC,0.0708
15,CACCAGTA,-0.12
16,CCCACCAA,-0.0735
17,AAGGCCCT,-0.0921
18,CTCAAAGC,-0.0214
19,AGTCGCAA,0.0426
20,ATTAATAG,0.0226
21,GAGAGCTC,-0.0913
22,AGATCCAG,0.112
23,ATCAGTTC,0.141
24,AATCGCGT,0.0675
25,CTCCACTA,-0.0961

row,Sequence,PBM E-score
1,AGTTGGAA,-0.145
2,AATCGGTA,-0.0123
3,TCACCTAA,0.0222
4,GAATGTGA,-0.141
5,CATTCGCA,-0.227
6,TGGTCCAA,-0.0168
7,CTAGGGAG,-0.205
8,AGGTAGGA,-0.166
9,GACCTAAA,0.0666
10,GAAAGCAA,0.17
11,ACACGATA,0.0566
12,AGCGTACG,-0.129
13,AGGGTCAT,-0.26
14,AACGTCGT,0.0532
15,GTGTAGTA,0.0739
16,CTGGCTGA,-0.0512
17,ACCTTAGC,-0.138
18,CCGTAAGA,-0.0199
19,CTAGAACA,0.0618
20,AACCCCGA,0.258
21,TGAGCGAA,0.0996
22,GGGCCCCC,-0.0273
23,GGTTTCTA,0.0811
24,CTGTGTTA,-0.0213
25,ATTATCCA,0.0658

row,Sequence,PBM E-score
1,GATTTAAC,0.12
2,CTACGGCA,-0.0605
3,GTCGTTCA,-0.233
4,CCGGCCAA,0.255
5,ATAGTTAC,-0.0969
6,ACAGGTCG,-0.159
7,AACCAACC,-0.0636
8,AATTGTGG,-0.173
9,ATTAATCG,0.221
10,GGCTCTGA,-0.279
11,ATCACTTA,-0.0809
12,GTGGGGCA,0.0349
13,CTGTAGGC,-0.241
14,TCTCATCA,-0.174
15,CACGTTAC,-0.187
16,CTTACTTA,-0.215
17,CTACACTA,-0.352
18,GGTGTAAA,-0.168
19,CAGTGGAC,-0.13
20,ATGCCTCA,0.0988
21,CGGAGCAG,0.403
22,GCTGGCGA,-0.0303
23,AGTACGAA,0.0707
24,TAGTCGAA,-0.112
25,CGCCAGCA,-0.164

row,Sequence,PBM E-score
1,TATATGCA,-0.0768
2,GTAGTAGA,-0.0908
3,CAACAACA,-0.00717
4,CCTGCATC,-0.145
5,AATGCCAG,0.0397
6,ACGATACT,-0.00704
7,ATGCGTAG,-0.149
8,CGGCGAGA,0.0811
9,ATGCCACC,-0.0409
10,CTACATAC,-0.0963
11,ATTATAGC,0.0979
12,AGAAGGTG,-0.0405
13,AGTAGGAG,-0.133
14,GGGGTAAA,0.0581
15,AGAAAGCT,-0.00259
16,CCGCTAGA,-0.25
17,GGGACTGA,-0.171
18,CTGGATGA,-0.0872
19,AGGCATCA,-0.297
20,CGAAGAGA,0.00419
21,ACGCCCAG,-0.111
22,CCGCACCC,0.244
